# From the supplement of paper PMC9334596
# “And” between values parts separate entries of the source, which are not always exact repeats. Identical values can stand only once. The full ranking holds about 5,300 compounds; the median of “PER2::LUC luminescence relative to vehicle control” is about 0.96, and the highest 2% start at about 1.3. The list shows a part of the results.
# Test system: mPer2Luc MEF
# Assay: PER2::LUC luminescence relative to vehicle control (fold of vehicle); higher = higher PER2::LUC reporter signal
# Conditions: 10 µM
# Outline: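 Compounds from commercial libraries were added at 10 μM to 384-well plates seeded 48 h earlier with ~3000 mPer2Luc mouse embryonic fibroblasts per well. The cells were kept in DMEM with 10% FBS at 37 °C and 5% CO2. Luminescence was read with ONE-Glo 24 h and 30 h after treatment, then an alamarBlue viability assay was run. Values are PER2::LUC luminescence relative to vehicle control, as fold change.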
Compound,PER2::LUC luminescence (time after treatment 24 h),PER2::LUC luminescence (time after treatment 30 h)
COc1cc([C@@H]2c3cc4c(cc3[C@@H](O[C@@H]3O[C@@H]5CO[C@@H](c6cccs6)O[C@H]5[C@H](O)[C@H]3O)[C@H]3COC(=O)[C@H]23)OCO4)cc(OC)c1O,0.578,0.334
Cc1cc(N2CCN([C@@H]3CN[C@H](C(=O)N4CCSC4)C3)CC2)n(-c2ccccc2)n1,1.11,1.11
Cc1cccn2c(=O)c(C=C(C#N)c3nc4ccccc4s3)c(Oc3ccc(F)cc3)nc12,0.941,0.942
OCc1ccccn1,1.03 and 0.984,0.993 and 1.19
COC1=CC(=O)C=C(OC)C1=O,1.33,0.867
COc1cc(OC)c2c(=O)c(-c3ccccc3)c(C)oc2c1OC,0.976,0.922
COc1ccc(CN2CCN(C(c3ccc(F)cc3)c3ccc(F)cc3)CC2)c(OC)c1OC,0.965 and 0.899,0.936 and 0.941
CC(C)(C)NC[C@H](O)COc1ccccc1C1CCCC1,0.724,0.775
COc1ccc2c(c1)C(C(=O)N(Cc1ccc(N(C)C)cc1)c1ccc(C(C)C)cc1)CCC2 (stereo unspecified),1.16,0.993
COc1ccc(C(=O)c2ccccc2O)c(O)c1,1.02,1.04
CCN1CCN(Cc2ccc(Nc3ncc(F)c(-c4cc(F)c5nc(C)n(C(C)C)c5c4)n3)nc2)CC1,0.322,0.409
COCCc1ccc(OCC(O)CNC(C)C)cc1 (stereo unspecified),0.933 and 0.85,0.982 and 0.89
Nc1nc2[nH]cc(CCc3ccc(C(=O)N[C@@H](CCC(=O)O)C(=O)O)cc3)c2c(=O)[nH]1,0.901 and 0.788,0.682 and 0.646
O=C(OCCOCCO)c1ccccc1Nc1cccc(C(F)(F)F)c1,0.989,0.97
CC1=C(C/C=C(\C)CCC[C@H](C)CCC[C@H](C)CCCC(C)C)C(=O)c2ccccc2C1=O,1.08 and 0.883,0.944 and 1.08
Fc1ccc2c(CCNCc3cccc(OCC(F)(F)C(F)F)c3)c[nH]c2c1,0.89,0.843
O=C(O)[C@H]1/C(=C/CO)O[C@@H]2CC(=O)N21,1.21,1.1
Cc1ncc(COP(=O)([O-])[O-])c(CN(CCN(CC(=O)O)Cc2c(COP(=O)([O-])O)cnc(C)c2O)CC(=O)O)c1O.[Mn].[Na+].[Na+].[Na+],0.995,0.957
O=C(O)c1cc(I)ccc1NC(=O)[C@H](Cc1ccccc1)NCc1ccccc1,1.1,1.12
CC(=O)CC(=O)Nc1ccc(Cl)c(C(F)(F)F)c1,1.35,1.37
CC1CCCC(C)N1 (stereo unspecified),1.03,1.18
O=c1c(O)c(-c2ccc(O)c(O)c2)oc2cc(O)cc(O)c12,0.939 and 0.842,0.934 and 1
CC(=O)Nc1cccc(O)c1,0.872,0.861
Cc1cnc(C(=O)O)c[n+]1[O-],1.01,1.19
COc1ccc(C2=N[C@H](c3ccc(Cl)cc3)[C@H](c3ccc(Cl)cc3)N2C(=O)N2CCNC(=O)C2)c(OC(C)C)c1,0.999,1.02
O=C(Nc1ccc([N+](=O)[O-])cc1O)Nc1ccccc1Br,1.07,1.04

Compound,PER2::LUC luminescence (time after treatment 24 h),PER2::LUC luminescence (time after treatment 30 h)
O=C(c1cncc(Br)c1)N1CCC(N2CCCC2)CC1,0.96,0.96
C[N+](C)(C)CCOP(=O)([O-])OC[C@H](O)CO,1.09,1
COC(=O)C(N)Cc1ccc(Cl)cc1 (racemic),1.04,1.04
NC(C(=O)O)c1cccc(O)c1 (racemic),1.02,1.03
O=C(O)C1(C(=O)O)CCC1.[NH2-].[NH2-].[Pt+2],1.09,0.881
CCN(CCCOc1ccc2c(Nc3cc(CC(=O)Nc4cccc(F)c4)[nH]n3)ncnc2c1)CCOP(=O)(O)O,1,0.944
Cc1ccccc1N=Nc1ccc(NC(=O)c2ccnn2C)c(C)c1,0.845,0.897
Nc1ccc(NC(=O)c2ccc(C(F)(F)F)cc2)nc1,1.01,0.976
CN[C@@H]1[C@H](O[C@H]2[C@H](O[C@H]3[C@H](O)[C@@H](O)[C@H](NC(=N)N)[C@@H](O)[C@@H]3NC(=N)N)O[C@@H](C)[C@]2(O)CO)O[C@@H](CO)[C@H](O)[C@H]1O,0.917,0.993
NCc1ccc(S(N)(=O)=O)cc1,0.99 and 1.15,1.07
CCc1oc2ccccc2c1C(=O)c1cc(Br)c(O)c(Br)c1,1.02 and 0.985,0.988 and 0.754
CC/C(=C(\c1ccccc1)c1ccc(OCCN(C)C)cc1)c1ccccc1,0.718 and 0.679,0.784 and 0.742
COc1cc2oc3cc(OC)c(OC)c(CC=C(C)C)c3c(=O)c2c(OC)c1CC=C(C)C,1.01,1.02
Cn1cc(-c2ccc(S(=O)(=O)n3ccc(/C=C/C(=O)Nc4ccccc4N)c3)cc2)cn1,0.219,0.258
COc1cc(OC)c(-c2c(OC)cc(OC)cc2OC)c(OC)c1,0.943,0.891
CN(C)CCCCC(=O)Nc1ccc(NC(=S)NC(=O)c2ccc(C(C)(C)C)cc2)cc1,0.18 and 0.147,0.186 and 0.127
C#C[C@]1(O)CC[C@H]2[C@@H]3CCC4=C(CCC(=O)C4)[C@H]3CC[C@@]21C,0.992,1.08
NC(=O)[C@@H]1CC[C@H](c2ccc(OCc3ccccc3F)cc2)N1,0.937,1.12
CCOC(=O)[N-]c1c[n+](N2CCOCC2)no1,1.09,1.74
CC[N+](CC)(CC)CCOc1cccc(OCC[N+](CC)(CC)CC)c1OCC[N+](CC)(CC)CC,0.563,0.842
COc1cc2ncnc(Nc3ccccc3)c2cc1OC,0.797,0.652
O=C(O)CCCCC1CCSS1 (racemic),1.03,1.2
COc1ccc2c(c1)O[C@@H]1COc3cc(OC)c(OC)cc3[C@@H]1C2=O,0.625,0.623
CC(C)(C)NCC(O)c1cc(O)cc(O)c1 (stereo unspecified),1.11 and 1.06,0.985 and 0.932
O=C(c1ccc(OCCCc2c[nH]cn2)cc1)C1CC1,1.09 and 1.51,1.33 and 1.29
CC(C)[C@H](N)C(=O)OCC(CO)OCn1cnc2c(=O)[nH]c(N)nc21 (stereo partly specified),0.584,0.497

Compound,PER2::LUC luminescence (time after treatment 24 h),PER2::LUC luminescence (time after treatment 30 h)
CN1CCC[C@@H]1CCO[C@](C)(c1ccccc1)c1ccc(Cl)cc1,0.728,0.678
CCOc1ccc(NC(C)=O)cc1,0.845,1.16
CN1CCN(c2nc(C3=C(c4c[nH]c5ccccc45)C(=O)NC3=O)c3ccccc3n2)CC1,0.75,0.787
COc1cc2ncnc(Nc3ccc(F)c(Cl)c3)c2cc1OCCCN1CCOCC1,0.753 and 0.586,0.726 and 0.608
O=C(O)c1cccnc1C(=O)O,0.981,0.885
CC(=O)Nc1ccc(C(=O)O)cc1,1.03,0.901
CCCCC[C@H](O)/C=C/[C@H]1[C@H](O)CC(=O)[C@@H]1CCCCCCC(=O)O,1.11 and 1.13,0.83 and 1.13
CC[C@@H]([C@H](C)O)n1ncn(-c2ccc(N3CCN(c4ccc(OC[C@@H]5CO[C@@](Cn6cncn6)(c6ccc(F)cc6F)C5)cc4)CC3)cc2)c1=O,0.744,0.717
CCN1CCC[C@H]1CNC(=O)c1c(O)c(Cl)cc(Cl)c1OC,1.14 and 1.02,0.977 and 0.877
O=C(O)c1ccccc1,0.918,0.766
CN(CC[C@@H](Oc1ccc(C(F)(F)F)cc1)c1ccccc1)CC(=O)[O-].[Li+],0.942,0.784
CC(C)C[C@H](NC(=O)OCc1ccccc1)C(=O)N[C@@H](CC(C)C)C(=O)NCC(=O)CNC(=O)[C@H](CC(C)C)NC(=O)[C@H](CC(C)C)NC(=O)OCc1ccccc1,1.01,0.909
Oc1cc(O)c(Cl)cn1,1.25,1.18
CC1(C)CCC(C)(C)c2cc(C(=O)Nc3ccc(C(=O)O)cc3)ccc21,1.64,1.67
COC(=O)C1=C(C)NC(C)=C(C(=O)OCC(C)C)C1c1ccccc1[N+](=O)[O-] (stereo unspecified),0.986,0.85
CC1(C)CNc2cc(NC(=O)c3cccnc3NCc3ccncc3)ccc21,0.853 and 0.796,0.802 and 0.858
CN1c2c([nH]c(N)nc2=O)NC[C@@H]1CNc1ccc(C(=O)N[C@@H](CCC(=O)O)C(=O)O)cc1,1.12,1.06
CC[C@@H]1/C=C(\C)C[C@H](C)C[C@H](OC)[C@H]2O[C@@](O)(C(=O)C(=O)N3CCCC[C@H]3C(=O)O[C@H](/C(C)=C/[C@@H]3CC[C@@H](O)[C@H](OC)C3)[C@H](C)[C@@H](O)CC1=O)[C@H](C)C[C@@H]2OC,0.741,0.852
OC[C@H]1O[C@@H](c2ccc(Cl)c(Cc3ccc(O[C@H]4CCOC4)cc3)c2)[C@H](O)[C@@H](O)[C@@H]1O,1.11,1.03
Cc1ccccc1CNc1ncnc2c1ncn2[C@@H]1O[C@H](CO)[C@@H](O)[C@H]1O,1.35,1.28
CCCCOc1nc(N)c2c(n1)N(Cc1cccc(CN3CCCC3)c1)CC(=O)N2,0.951,0.974
COC(=O)C1=C(C)NC(C)=C(C(=O)OCCN(C)Cc2ccccc2)C1c1cccc([N+](=O)[O-])c1 (stereo unspecified),1.07,0.867
CCCC(=O)[O-].[Na+],1.05 and 1.08,0.969 and 0.827
C/C=C(/C)C(=O)O[C@H]1[C@H](OC(C)=O)[C@@]2(CO)C(CC1(C)C)C1=CCC3[C@@]4(C)CCC(O[C@@H]5O[C@H](C(=O)O)[C@@H](O[C@@H]6O[C@H](CO)[C@@H](O)[C@H](O)[C@H]6O)[C@H](O)[C@H]5O[C@@H]5O[C@H](CO)[C@@H](O)[C@H](O)[C@H]5O)[C@](C)(CO)C4CC[C@@]3(C)[C@]1(C)C[C@H]2O.C/C=C(\C)C(=O)O[C@H]1[C@H](OC(C)=O)[C@@]2(CO)C(CC1(C)C)C1=CCC3[C@@]4(C)CCC(O[C@@H]5O[C@H](C(=O)O)[C@@H](O[C@@H]6O[C@H](CO)[C@@H](O)[C@H](O)[C@H]6O)[C@H](O)[C@H]5O[C@@H]5O[C@H](CO)[C@@H](O)[C@H](O)[C@H]5O)[C@](C)(CO)C4CC[C@@]3(C)[C@]1(C)C[C@H]2O (stereo partly specified),0.817,0.802
COc1ccc([C@@H]2OC[C@@H]3[C@H]2CO[C@H]3c2ccc(OC)c(OC)c2)cc1OC,1.05,1.07
CC(C)=CCc1c2c(c3occ(-c4ccc(O)cc4)c(=O)c3c1O)C=CC(C)(C)O2,1,0.976
